Experimental data published in the supplement of paper PMC3334620.
Whole data set: some 33,000 sequences, median “E-score (-0.5 to 0.5)” near -0.053, cut for the highest 2% near 0.37. Some of the results follow.

Biological target: Hap1 (UniProt P0CE41)
Experiment: PBM E-score (8-mer binding enrichment) (E-score (-0.5 to 0.5)); higher = stronger / more preferred TF binding; most listed sequences are background and not binding sites
Conditions: protein concentration: 200 nM; construct: GST-DNA-binding domain
How it was run: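 Each ungapped eight-base word and its reverse complement, pooled, received an E-score from the Universal PBM Analysis Suite. Underlying scans, normalised with masliner, recorded fluorescent anti-GST bound to GST-tagged yeast transcription factors. These were applied at about 100-200 nM to universal all-10-mer Agilent arrays double-stranded by primer extension.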

Chain of UniProt P0CE41 (P0CE41 whole entry): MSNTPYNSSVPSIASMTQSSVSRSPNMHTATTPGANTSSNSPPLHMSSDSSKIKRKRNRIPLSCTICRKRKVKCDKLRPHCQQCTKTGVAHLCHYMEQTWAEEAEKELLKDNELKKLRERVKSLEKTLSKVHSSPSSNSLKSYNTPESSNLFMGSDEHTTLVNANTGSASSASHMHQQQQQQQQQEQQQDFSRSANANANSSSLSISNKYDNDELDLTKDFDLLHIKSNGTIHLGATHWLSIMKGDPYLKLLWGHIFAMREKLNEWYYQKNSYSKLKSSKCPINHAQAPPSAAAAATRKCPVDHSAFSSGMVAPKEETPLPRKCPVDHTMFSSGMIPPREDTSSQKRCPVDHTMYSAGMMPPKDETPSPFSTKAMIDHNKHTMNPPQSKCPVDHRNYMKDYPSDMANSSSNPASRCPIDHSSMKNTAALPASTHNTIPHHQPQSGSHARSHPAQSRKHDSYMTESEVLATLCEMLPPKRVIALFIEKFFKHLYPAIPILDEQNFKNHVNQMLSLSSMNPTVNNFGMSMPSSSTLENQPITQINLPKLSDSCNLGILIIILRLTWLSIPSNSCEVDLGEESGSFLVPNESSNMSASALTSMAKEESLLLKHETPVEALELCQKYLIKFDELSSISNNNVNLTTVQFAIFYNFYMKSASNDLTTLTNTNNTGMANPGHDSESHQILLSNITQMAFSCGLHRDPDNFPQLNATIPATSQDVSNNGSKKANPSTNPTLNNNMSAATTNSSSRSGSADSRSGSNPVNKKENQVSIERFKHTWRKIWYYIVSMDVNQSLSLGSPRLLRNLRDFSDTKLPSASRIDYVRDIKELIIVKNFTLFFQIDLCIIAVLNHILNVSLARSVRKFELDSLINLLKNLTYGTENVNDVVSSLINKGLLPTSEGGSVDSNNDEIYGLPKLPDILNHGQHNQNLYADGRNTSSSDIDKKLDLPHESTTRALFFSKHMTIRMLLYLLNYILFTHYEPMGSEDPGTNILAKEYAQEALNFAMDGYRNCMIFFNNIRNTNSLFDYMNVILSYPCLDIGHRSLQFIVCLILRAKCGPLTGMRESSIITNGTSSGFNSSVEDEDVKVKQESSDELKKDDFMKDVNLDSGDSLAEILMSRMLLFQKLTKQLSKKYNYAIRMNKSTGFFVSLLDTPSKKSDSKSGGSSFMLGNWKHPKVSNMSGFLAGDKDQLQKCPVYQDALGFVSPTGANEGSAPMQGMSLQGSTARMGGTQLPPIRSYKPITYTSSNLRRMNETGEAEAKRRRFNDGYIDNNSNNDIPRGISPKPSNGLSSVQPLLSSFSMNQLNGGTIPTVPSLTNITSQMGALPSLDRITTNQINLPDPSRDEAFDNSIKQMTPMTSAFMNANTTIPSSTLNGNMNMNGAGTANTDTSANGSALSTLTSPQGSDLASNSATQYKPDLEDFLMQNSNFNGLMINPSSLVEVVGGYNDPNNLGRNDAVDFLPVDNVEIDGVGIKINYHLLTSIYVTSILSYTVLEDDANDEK

Sequence	PBM E-score
AGGCCCCC	-0.0231
CTGGATAA	0.037
ACTTATGA	-0.0989
GCTTTTTA	0.0123
ACGTGAGA	-0.195
AAAGGTCC	0.0478
ACCTTGGA	-0.148
AGAGAGTG	-0.238
GAGTTGGC	0.023
CCGGAAGA	0.365
AGTAAGGC	0.0483
AAACCATC	0.157
AACCGACG	0.266
CCCCAATA	-0.29
AGTTCTAA	-0.0553
CATACGCC	-0.0505
ACCACGCA	-0.302
AGTGACTC	-0.193
GCAGCAGC	-0.238
ACGTACAG	-0.0568
ACGACGCG	0.0318
CACTGTGG	-0.221
GCACATCA	-0.052
TAGACTAA	-0.131
AGGAGATG	-0.0442

Sequence	PBM E-score
CGTTGATA	0.133
GGGCCAAA	0.159
GTTCCAGA	-0.317
ATTCAATC	0.0541
CGATGGGA	0.0948
GTGTCACA	-0.0573
CCAGGGAA	-0.364
TGGGTTAA	-0.0326
ACGTTACC	0.15
ACACCTGG	-0.131
GAAGGTCC	0.0808
GGTCAATA	-0.141
ATGGTTCG	0.0239
GCGGATCA	0.209
TCTCACCA	-0.0141
CATATGCC	0.0372
ATTTGCCA	-0.279
AGATAACT	-0.0158
CCACAGCA	-0.107
ACCGCAAT	0.239
CATCTTGC	0.0273
AACACGCG	0.00839
AGCGTAAA	-0.0072
ATGCTAAA	-0.137
CAAAAATC	-0.164

Sequence	PBM E-score
GGTGCGTA	-0.0181
AAAATTTG	-0.227
GGAGCACA	0.00045
AGCGCTCC	-0.0137
ATGGTGTA	-0.15
CTGAGAGA	-0.256
ATCAGTGC	-0.212
GTAACCGA	0.244
ATGAAGTG	-0.133
CGACAGGC	-0.076
ACGGGTAG	-0.0904
ACCTCCAG	-0.153
AAAAGCGT	-0.124
AAGCTATC	0.122
ATGTACGA	0.105
CAGGAACG	-0.155
GTAATTCA	-0.0294
GCCATGAC	-0.0836
AACTGTAC	-0.179
GTGAATCA	-0.146
AAATGTGT	-0.0775
AGACGTCT	-0.186
AGCGAATA	-0.0417
TCAATGCA	-0.31
CTGATGTA	-0.038

Sequence	PBM E-score
ACCTTGAG	-0.113
GGGTAAAC	-0.0245
GAACAGTA	-0.188
ACCAGGGT	-0.258
CAGAATGG	-0.0344
CCGGCCCC	0.312
GTTATACA	-0.163
CACAGCTG	-0.194
CTCACGGC	0.0364
ATTGTACC	0.00536
GGTACCGA	0.179
TACGCCGA	0.301
AAATAGGG	-0.0374
GGCACTTA	-0.0691
CAGTTAGG	-0.258
AGTCTTAG	-0.278
AAATTTAC	-0.0134
GAAAAACC	0.186
CTCGGTGC	0.172
CGCACTGC	-0.116
ACGCAGGG	-0.134
AAGCGGGG	0.0382
CGTTTAAG	0.0983
AGCTCAGC	-0.175
AACCATCG	0.176

Sequence	PBM E-score
TAGAGAGA	-0.214
CCCCAGGG	-0.234
AGAGATGG	-0.0221
ACAAATCA	-0.211
GTGATAAC	0.0828
GGATCACA	0.00535
CACCGCCA	-0.0785
CAATTGCC	-0.00336
GCGTCGCC	-0.0379
CGGTTCTA	0.276
ATGCCCAC	-0.262
CTCCAACC	0.082
CAAAAACG	-0.0605
CTCGAAAA	-0.155
CGGGGGCA	0.116
CAACCAAG	-0.27
AGTAACAG	-0.132
GACGAATC	0.0682
AGATACCC	0.215
CGCTCATA	0.0332
AAGCCCGG	0.407
ACATGAGC	-0.15
GAACGATA	0.0594
ACCTCTGG	-0.181
CAGACCCC	-0.129

Sequence	PBM E-score
AAACCCTA	-0.136
ATCCTACA	-0.222
CGCAAGGC	0.142
CGGAGCAC	0.196
ATCATGCG	-0.113
CGTAACAG	0.0357
ACGGGGAG	-0.0069
ATTCAAAG	-0.213
CGCGGGTC	0.284
CAACGACA	-0.121
CCTTAGTA	-0.114
AACTCCGC	0.389
CAGACCTA	-0.284
AGTTCGAG	-0.119
AAATTCAC	0.0387
GATAAATA	0.144
GGCTAAAC	0.00914
TGGTTGAA	-0.143
ATGATCCC	0.0807
CACCGAAG	0.245
AACGTCAC	-0.242
GGGCGCAA	-0.0038
GGATTATA	0.24
CTCTGCAA	-0.124
ATTCCTAA	-0.0333

Sequence	PBM E-score
GCGACTCC	-0.196
TGTCATAA	-0.281
GATCAAAA	-0.107
AAACGAAG	-0.0629
CGACGTTC	-0.0677
GTGCGCCA	-0.0846
GTAAAAAA	0.0671
TGGCTAAA	-0.0452
AACTCTTG	-0.302
AGTCTGGG	-0.293
AACACGGC	0.104
AGCAATGC	-0.0854
AGTCGATA	-0.0174
AGATGGGA	-0.129
AGACAGAT	-0.15
ATAAGGCC	0.196
CACTAATG	-0.124
ACCAGTCT	-0.315
GTGACGCA	-0.127
AAGTATAC	-0.111
ACGTCTGG	-0.202
ACTCCCCC	0.029
